Measurements as given in patent US8815842B2 (priority 2006, dated 2014).

Details: 1% T-1105 compounded feed for pigs, 24 hours
Description: 30 g of T-1105 was mixed with 2970 g of commercially available feeds for pigs (JA ZEN-NOH) to obtain 3000 g of 1% T-1105 compounded feed.

SMILES: NC(=O)c1nccnc1O [T-1105, 3-oxo-3,4-dihydro-2-pyrazinecarboxamide]
- stability in compounded feed: stable without being degraded
